The values below come from the RNAGym collection of RNA variant scans (doi:10.1073/pnas.2313332121).

To fix the notation:
B1: TPR 5TU (parent)
chain: GGAUCUUCUCGAUCUAACAAAAAAGACAAAUCUGCCACAAAGCUUGAGAGCAUCUUCGGAUGCAGAGGCGGCAGCCUUCGGUGGCGCGAUAGCGCCAACGUUCUCAACUAUGACACGCAAAACGCGUGCUCCGUUGAAUGGAGUUUAUCAUG

This sample is rich in variants without activity.

The variants in this data set derive from B1. The data set is described as follows: polymerase ribozyme fitness, log enrichment relative to wild type (log ratio); higher = more active; in vitro selection for triplet polymerase activity. In a few lines: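 A single round of triplicate in vitro selection, including frozen incubation at −7 °C, was applied to PCR-built, transcribed mutant libraries of each subunit of a heterodimeric triplet polymerase ribozyme. Illumina sequencing of input and output libraries retained genotypes with ≥10 input reads and ≥1 read per output. Fitness is the base-2 logarithm of genotype enrichment divided by wild-type enrichment, from inverse-variance-weighted replicate averages.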
Regarding G42U G58C A64C A91G G94A C95A A98G G126U, the “polymerase ribozyme fitness (log ratio)” value is ≤ -4.2.

C43U A91U A98G C99U U102G: the “polymerase ribozyme fitness (log ratio)” value was ≤ -4.2.

Take G42A A97G: the “polymerase ribozyme fitness (log ratio)” value was ≤ -4.2.

Regarding A41C C96A, the “polymerase ribozyme fitness (log ratio)” value is -0.56.

Turning to G42A U55A C95U U111G A147U, the “polymerase ribozyme fitness (log ratio)” value is ≤ -4.2.

As to G42U C76A C85A A97U, the “polymerase ribozyme fitness (log ratio)” value was ≤ -4.2.

For A41G G42U A66U G74A U151G, the “polymerase ribozyme fitness (log ratio)” value is ≤ -4.2.

For the variant A41G G83C G143C, the “polymerase ribozyme fitness (log ratio)” value was -3.18.

For the variant C43U U53A C57A, the “polymerase ribozyme fitness (log ratio)” value was ≤ -4.2.

On to G42A U45A C95U A106C C108A C149U, for which the “polymerase ribozyme fitness (log ratio)” value was ≤ -4.2.

In the case of G42C A47G C57A C75G C125G, the “polymerase ribozyme fitness (log ratio)” value is ≤ -4.2.

Consider C43U U61G C96G C105G, for which the “polymerase ribozyme fitness (log ratio)” value is ≤ -4.2.

As for A41G A49U G59U C85A C105U A106G A121U U134C, the “polymerase ribozyme fitness (log ratio)” value was ≤ -4.2.

On to G42C G46U G48C G84A, for which the “polymerase ribozyme fitness (log ratio)” value was ≤ -4.2.

As for G42C C85G G92A G94A U101A A115U A142C U148G, the “polymerase ribozyme fitness (log ratio)” value was ≤ -4.2.

As to A41C G58U G59A G65A A66U G124U, the “polymerase ribozyme fitness (log ratio)” value is ≤ -4.2.

For A41C U44G A60U C87G, the “polymerase ribozyme fitness (log ratio)” value is ≤ -4.2.

As to C43U C85G U144G, the “polymerase ribozyme fitness (log ratio)” value was ≤ -4.2.

With A41C C87G G100C G126A A142C, the “polymerase ribozyme fitness (log ratio)” value was ≤ -4.2.

On to G42U C76G G80A C95G, for which the “polymerase ribozyme fitness (log ratio)” value is ≤ -4.2.

Regarding G42A G92A C96U A98G U151G, the “polymerase ribozyme fitness (log ratio)” value is ≤ -4.2.

As for C43U A49C G80C U90G G94A C131U, the “polymerase ribozyme fitness (log ratio)” value is ≤ -4.2.

With G42C G50A A89U G92A A138U G141C, the “polymerase ribozyme fitness (log ratio)” value is ≤ -4.2.

With G42A C96G U101G C131A A147C U148C, the “polymerase ribozyme fitness (log ratio)” value is ≤ -4.2.

Consider C43U G50C C105U A110G G141U, for which the “polymerase ribozyme fitness (log ratio)” value is ≤ -4.2.

G42A G58U A64G G68U G92C C95U C129U U134C: the “polymerase ribozyme fitness (log ratio)” value is ≤ -4.2.

Turning to C43U G48A C57G C85U, the “polymerase ribozyme fitness (log ratio)” value was ≤ -4.2.

As for G42A U53A C96U U130C, the “polymerase ribozyme fitness (log ratio)” value was ≤ -4.2.

Take G42A C79G U144C: the “polymerase ribozyme fitness (log ratio)” value is ≤ -4.2.

As to A41U U55A C79U G83A, the “polymerase ribozyme fitness (log ratio)” value is ≤ -4.2.

As for C43G C57A G58A A122C C123A G136A A137G G141C, the “polymerase ribozyme fitness (log ratio)” value is ≤ -4.2.

For the variant G42C C54U A91U C96A G143A, the “polymerase ribozyme fitness (log ratio)” value was ≤ -4.2.

Regarding A41C C85A C105G G126U, the “polymerase ribozyme fitness (log ratio)” value is -3.3.

Consider C43G G59C C69G C87G U90C A119U G128C, for which the “polymerase ribozyme fitness (log ratio)” value was ≤ -4.2.

As to C43G G67A C96U A119U G128U, the “polymerase ribozyme fitness (log ratio)” value was ≤ -4.2.

A40U G46A G50C C87G G92U G126A U148A: the “polymerase ribozyme fitness (log ratio)” value is ≤ -4.2.

For the variant C43G G59C G88U C96U C149G, the “polymerase ribozyme fitness (log ratio)” value is ≤ -4.2.

Take C43A G67U C76U U82C: the “polymerase ribozyme fitness (log ratio)” value is ≤ -4.2.

As to G42C C76U C85U A89G U104C, the “polymerase ribozyme fitness (log ratio)” value was ≤ -4.2.

Consider G42A U44A C54G G58C C75A C93G, for which the “polymerase ribozyme fitness (log ratio)” value is ≤ -4.2.

In the case of A41G G42A G50C C63G A66C G88U C96U G133U U146C U151C, the “polymerase ribozyme fitness (log ratio)” value is ≤ -4.2.

In the case of A41C C99G, the “polymerase ribozyme fitness (log ratio)” value is -0.603.

For G42A U109C, the “polymerase ribozyme fitness (log ratio)” value is ≤ -4.2.

Take C43A G92A U111C G133A: the “polymerase ribozyme fitness (log ratio)” value is ≤ -4.2.

Regarding C43A A49U G50U A97C C149G, the “polymerase ribozyme fitness (log ratio)” value is ≤ -4.2.

For C43G A47C U55A G58C G143C, the “polymerase ribozyme fitness (log ratio)” value was ≤ -4.2.

On to G42C A66G A89U C96U C125A, for which the “polymerase ribozyme fitness (log ratio)” value was ≤ -4.2.

Take A41U A49G A52C G84A C103G A115U: the “polymerase ribozyme fitness (log ratio)” value is ≤ -4.2.

As for A40U G94A A107U, the “polymerase ribozyme fitness (log ratio)” value was ≤ -4.2.

With G42A C85A C125A, the “polymerase ribozyme fitness (log ratio)” value was ≤ -4.2.

With A41G C54G G117U G124C, the “polymerase ribozyme fitness (log ratio)” value was -1.19.

C43A A49U G74A G86C C93A C105U U144A: the “polymerase ribozyme fitness (log ratio)” value was ≤ -4.2.

Turning to A41U U56A C93A A121U, the “polymerase ribozyme fitness (log ratio)” value is -3.16.

Consider G42C U44A A49U A60C C79U C96U C125A A142G, for which the “polymerase ribozyme fitness (log ratio)” value is ≤ -4.2.

For the variant A41U A91U G140A, the “polymerase ribozyme fitness (log ratio)” value is ≤ -4.2.

On to C43U U56A G94A, for which the “polymerase ribozyme fitness (log ratio)” value was ≤ -4.2.

For the variant G42A U45A G84A U102G, the “polymerase ribozyme fitness (log ratio)” value is ≤ -4.2.

On to A41C C103A, for which the “polymerase ribozyme fitness (log ratio)” value was -1.44.

As to A41G C63G G68U C85U A137U, the “polymerase ribozyme fitness (log ratio)” value was ≤ -4.2.

Regarding A41C C54U A60U U135G, the “polymerase ribozyme fitness (log ratio)” value was ≤ -4.2.

In the case of A41G G59A G81U C95A C114U, the “polymerase ribozyme fitness (log ratio)” value was -1.27.

For C43U C75A G92U C105G, the “polymerase ribozyme fitness (log ratio)” value was ≤ -4.2.

For C43G U55A G68U G88U C116U, the “polymerase ribozyme fitness (log ratio)” value was ≤ -4.2.

As to A41U C57U G80A, the “polymerase ribozyme fitness (log ratio)” value was -1.12.

Take A41U C95U C99U G141C: the “polymerase ribozyme fitness (log ratio)” value is -2.51.

Regarding A41U G46C G68A U104G, the “polymerase ribozyme fitness (log ratio)” value was ≤ -4.2.

For A41C U127C, the “polymerase ribozyme fitness (log ratio)” value was -2.04.

C43G G50U U61C G86A C95U C125U U146G: the “polymerase ribozyme fitness (log ratio)” value was ≤ -4.2.

As for A41G G143U, the “polymerase ribozyme fitness (log ratio)” value was -1.73.

Regarding A41G A98U C103G A138C, the “polymerase ribozyme fitness (log ratio)” value was ≤ -4.2.

As to C43A C51U A107G, the “polymerase ribozyme fitness (log ratio)” value is ≤ -4.2.

Consider A40U G59U C85A G88A C95A U101G G152C, for which the “polymerase ribozyme fitness (log ratio)” value is ≤ -4.2.

Consider A41C G84U C87G, for which the “polymerase ribozyme fitness (log ratio)” value is ≤ -4.2.

Take C43G C76U C99A C131G U144C: the “polymerase ribozyme fitness (log ratio)” value was ≤ -4.2.

With A41C G50A A52C C54U U56A C75U C87U U146G A150G, the “polymerase ribozyme fitness (log ratio)” value was ≤ -4.2.

Turning to C43G U82A, the “polymerase ribozyme fitness (log ratio)” value is ≤ -4.2.

On to G42C A73C G84U C129A, for which the “polymerase ribozyme fitness (log ratio)” value was ≤ -4.2.

Regarding A41C U44A G83A, the “polymerase ribozyme fitness (log ratio)” value is ≤ -4.2.

On to A41C G80C, for which the “polymerase ribozyme fitness (log ratio)” value is -4.11.

G42U U90G C95U C114U U139A: the “polymerase ribozyme fitness (log ratio)” value is ≤ -4.2.

Consider A41C U61A G86A G112A A115G, for which the “polymerase ribozyme fitness (log ratio)” value was ≤ -4.2.

With A41U C87U A137U G143U, the “polymerase ribozyme fitness (log ratio)” value is ≤ -4.2.

Regarding A41G A73U U78A C85A G117C, the “polymerase ribozyme fitness (log ratio)” value was ≤ -4.2.

For U44A A47U C72G G86C A91C, the “polymerase ribozyme fitness (log ratio)” value was ≤ -4.2.
